Data reported in US20060160798A1, “Viral polymerase inhibitors” (Boehringer Ingelheim (Canada) Ltd., priority 2001, published 2006).

Test system: Huh7 cells that stably maintain a subgenomic HCV replicon (S22.3 cell-line)
Test: Cell based HCV RNA replication assay (S22.3 replicon cells, real-time RT-PCR)
Conditions: Hepatitis C virus
[1] = Huh-7, 72 h, S22.3 cells, 72 hours incubation, HCV RNA by RT-PCR

Row | SMILES | EC50 [1] [nM] | EC50 (Huh-7, Table 6) [nM] | other results
1 | Cn1c(-c2cccc(N)n2)c(C2CCCCC2)c2ccc(C(=O)NC(C)(C)C(=O)Nc3ccc(/C=C/C(=O)O)cc3)cc21 [Entry 2096] | < 500 | – | –
2 | Cn1c(-c2ccccn2)c(C2CCCC2)c2ccc(C(=O)NC3(C(=O)Nc4ccc(-c5cnc(N)nc5)cc4)CCC3)cc21 [Entry 7065] | – | – | EC50 (Huh-7, Table 7): 500 to 5000 nM
3 | CC(=O)Nc1nc(-c2c(C3CCCC3)c3ccc(C(=O)NC4(C(=O)Nc5ccc(/C=C/C(=O)O)cc5)CCCC4)cc3n2C)cs1 [Entry 6086] | – | < 500 | –
4 | Cc1cccc(-c2c(C3CCCC3)c3ccc(C(=O)NC4(C(=O)Nc5ccc(/C=C/C(=O)O)cc5)CCCC4)cc3n2C)n1 [Entry 6057] | – | < 500 | –
5 | Cn1c(-c2ccncc2)c(C2CCCC2)c2ccc(C(=O)NC3(C(=O)Nc4ccc(/C=C/C(=O)O)cc4)CCCC3)cc21 [Entry 6066] | – | < 500 | –
6 | CC(C)(NC(=O)c1ccc2c(C3CCCCC3)c(-c3ccsc3)[nH]c2c1)C(=O)Nc1ccc(-c2nc(C(=O)O)cs2)cc1 [Entry 2019] | 500 to 5000 | – | –
7 | C[C@@H](NC(=O)c1ccc2c(C3CCCCC3)c(-c3ccoc3)[nH]c2c1)C(=O)Nc1ccc(/C=C/C(=O)O)cc1 [Entry 2004] | < 500 | – | –
8 | Cn1c(-c2ccccn2)c(C2CCCC2)c2ccc(C(=O)N[C@@]3(C(=O)Nc4ccc(/C=C/C(=O)O)cc4)CCN(S(C)(=O)=O)C3)cc21 [Entry 6124] | – | < 500 | –
9 | CNc1nc(-c2c(C3CCCC3)c3ccc(C(=O)NC4(C(=O)Nc5ccc(/C=C/C(=O)O)cc5)CCCC4)cc3n2C)cs1 [Entry 6087] | – | < 500 | –
10 | Cc1nc(-c2nc(-c3c(C4CCCC4)c4ccc(C(=O)NC(C)(C)C(=O)Nc5ccc(/C=C/C(=O)O)cc5)cc4n3C)cs2)cs1 [Entry 6018] | – | < 500 | –
11 | O=C(O)/C=C/c1ccc(NC(=O)C2(NC(=O)c3ccc4c(C5CCCCC5)c(-c5ccoc5)[nH]c4c3)CCOCC2)cc1 [Entry 2069] | < 500 | – | –
12 | Cn1c(-c2csc(-c3cccs3)n2)c(C2CCCC2)c2ccc(C(=O)NC(C)(C)C(=O)Nc3ccc(/C=C/C(=O)O)cc3)cc21 [Entry 6019] | – | < 500 | –
13 | Cn1c(-c2csc(NC(=O)CC(C)(C)C)n2)c(C2CCCC2)c2ccc(C(=O)NC(C)(C)C(=O)Nc3ccc(/C=C/C(=O)O)cc3)cc21 [Entry 6007] | – | < 500 | –
14 | CN1CC[C@](NC(=O)c2ccc3c(C4CCCCC4)c(-c4ccccn4)n(C)c3c2)(C(=O)Nc2ccc(/C=C/C(=O)O)cc2)C1 [Entry 2118] | < 500 | – | –
15 | CCn1c(-c2ccccc2)c(C2CCCCC2)c2ccc(C(=O)NC(C)(C)C(=O)Nc3ccc(/C=C/C(=O)O)cc3)cc21 [Entry 2020] | < 500 | – | –
16 | Cn1c(C(=O)O)cc2cc(NC(=O)C3(NC(=O)c4ccc5c(C6CCCC6)c(-c6nccs6)n(C)c5c4)CCC3)ccc21 [Entry 7008] | – | – | EC50 (Huh-7, Table 7): < 500 nM
17 | CCn1c(C(=O)O)cc2cc(NC(=O)[C@@H](C)NC(=O)c3ccc4c(C5CCCCC5)c(-c5ccoc5)[nH]c4c3)ccc21 [Entry 2015] | < 500 | – | –
18 | Cc1cccc(-c2c(C3CCCC3)c3ccc(C(=O)NC4(C(=O)Nc5ccc(/C=C/C(=O)O)cc5)CCC4)cc3n2C)n1 [Entry 6069] | – | < 500 | –
19 | C=Cc1c(C2CCCC2)c2ccc(C(=O)NC3(C(=O)Nc4ccc(/C=C/C(=O)O)cc4)CCCC3)cc2n1C [Entry 6099] | – | < 500 | –
20 | O=C(O)/C=C/c1ccc(NC(=O)C2(NC(=O)c3ccc4c(C5CCCCC5)c(-c5ccco5)[nH]c4c3)CCCC2)cc1 [Entry 2037] | < 500 | – | –

Row | SMILES | EC50 [1] [nM] | EC50 (Huh-7, Table 6) [nM] | other results
21 | CC(C)C(=O)Nc1nc(-c2c(C3CCCC3)c3ccc(C(=O)NC(C)(C)C(=O)Nc4ccc(/C=C/C(=O)O)cc4)cc3n2C)cs1 [Entry 6027] | – | < 500 | –
22 | Cn1c(-c2ccccn2)c(C2CCCC2)c2ccc(C(=O)NC3(C(=O)NCc4ccc(C(=O)O)cc4)CCC3)cc21 [Entry 7003] | – | – | EC50 (Huh-7, Table 7): 500 to 5000 nM
23 | Cn1c(-c2cnccn2)c(C2CCCC2)c2ccc(C(=O)NC3(C(=O)Nc4ccc(-c5ccc(C(=O)O)o5)cc4)CCC3)cc21 [Entry 7036] | – | – | EC50 (Huh-7, Table 7): < 500 nM
24 | C/C(=C\c1ccc(NC(=O)C2(NC(=O)c3ccc4c(C5CCCC5)c(-c5ccsc5)n(C)c4c3)CCC2)cc1)C(=O)O [Entry 7053] | – | – | EC50 (Huh-7, Table 7): < 500 nM
25 | CC(=O)Nc1ccc(-c2c(C3CCCC3)c3ccc(C(=O)NC(C)(C)C(=O)Nc4ccc(/C=C/C(=O)O)cc4)cc3n2C)cc1C [Entry 6005] | – | < 500 | –
26 | Cn1c(-c2ccccn2)c(C2CCCC2)c2ccc(C(=O)NC3(C(=O)Nc4ccc5[nH]ccc5c4)CCC3)cc21 [Entry 7077] | – | – | EC50 (Huh-7, Table 7): < 500 nM
27 | CCNc1nc(-c2c(C3CCCC3)c3ccc(C(=O)NC4(C(=O)Nc5ccc(/C=C/C(=O)O)cc5)CCC4)cc3n2C)cs1 [Entry 6073] | – | < 500 | –
28 | CC#CCn1c(C(=O)O)cc2cc(NC(=O)[C@@H](C)NC(=O)c3ccc4c(C5CCCCC5)c(-c5ccoc5)[nH]c4c3)ccc21 [Entry 2014] | 500 to 5000 | – | –
29 | Cn1c(-c2ccccn2)c(C2CCCC2)c2ccc(C(=O)NC3(C(=O)Nc4ccc(-c5ccc(C(=O)O)o5)cc4)CCCC3)cc21 [Entry 7010] | – | – | EC50 (Huh-7, Table 7): < 500 nM
30 | CNc1nc(-c2c(C3CCCC3)c3ccc(C(=O)NC(C)(C)C(=O)Nc4ccc(/C=C/C(=O)O)cc4)cc3n2C)cs1 [Entry 6009] | – | < 500 | –
31 | CCc1ccnc(-c2c(C3CCCC3)c3ccc(C(=O)NC4(C(=O)Nc5ccc(-c6ccc(C(=O)O)o6)cc5)CCCC4)cc3n2C)c1 [Entry 7043] | – | – | EC50 (Huh-7, Table 7): 500 to 5000 nM
32 | Cn1c(-c2cccc(N)n2)c(C2CCCC2)c2ccc(C(=O)NC3(C(=O)Nc4ccc(-c5ccc(C(=O)O)o5)cc4)CCCC3)cc21 [Entry 7025] | – | – | EC50 (Huh-7, Table 7): < 500 nM
33 | Cn1c(-c2ccc(N)cc2)c(C2CCCC2)c2ccc(C(=O)NC3(C(=O)Nc4ccc(/C=C/C(=O)O)cc4)CCCC3)cc21 [Entry 6053] | – | < 500 | –
34 | CC(NC(=O)c1ccc2c(C3CCCC3)c(-c3ccccn3)n(C)c2c1)c1nc2ccc(C=CC(=O)O)cc2[nH]1 (stereo not drawn) [Entry 1017] | 500 to 5000 | – | –
35 | CC(NC(=O)c1ccc2c(C3CCCC3)c(-c3ccccn3)n(C)c2c1)c1nc2ccc(C=CC(N)=O)cc2[nH]1 (stereo not drawn) [Entry 1021] | < 500 | – | –
36 | CC(C)(NC(=O)c1ccc2c(C3CCCCC3)c(-c3ccoc3)[nH]c2c1)C(=O)Nc1ccc(-c2ccc(C(=O)O)o2)cc1 [Entry 2053] | < 500 | – | –
37 | Cc1c(C(=O)O)sc2ccc(NC(=O)[C@]3(NC(=O)c4ccc5c(C6CCCC6)c(-c6cnccn6)n(C)c5c4)CCN(C)C3)cc12 [Entry 7061] | – | – | EC50 (Huh-7, Table 7): < 500 nM
38 | Cc1cccc(-c2c(C3CCCCC3)c3ccc(C(=O)NC(C)(C)C(=O)Nc4ccc(/C=C/C(=O)O)cc4)cc3n2C)n1 [Entry 2098] | < 500 | – | –
39 | Cc1ccc(-c2c(C3CCCC3)c3ccc(C(=O)NC4(C(=O)Nc5ccc(-c6ccc(C(=O)O)o6)cc5)CCCC4)cc3n2C)nc1 [Entry 7029] | – | – | EC50 (Huh-7, Table 7): < 500 nM
40 | CC(C)C(=O)Nc1nc(-c2c(C3CCCC3)c3ccc(C(=O)NC4(C(=O)Nc5ccc(/C=C/C(=O)O)cc5)CCC4)cc3n2C)cs1 [Entry 6079] | – | < 500 | –

Row | SMILES | EC50 [1] [nM] | EC50 (Huh-7, Table 6) [nM] | other results
41 | Cn1c(-c2ccccn2)c(C2CCCCC2)c2ccc(C(=O)NC(C)(C)C(=O)Nc3ccc(NC(=O)C(=O)NO)cc3)cc21 [Entry 2095] | < 500 | – | –
42 | CCN1CCC(NC(=O)c2ccc3c(C4CCCCC4)c(-c4ccoc4)[nH]c3c2)(C(=O)Nc2ccc(/C=C/C(N)=O)cc2)CC1 [Entry 2078] | 500 to 5000 | – | –
43 | Cn1c(-c2ccc(Cl)cn2)c(C2CCCC2)c2ccc(C(=O)NC3(C(=O)Nc4ccc(/C=C/C(=O)O)cc4)CCCC3)cc21 [Entry 6049] | – | < 500 | –
44 | CN(C)CCNc1nc(-c2c(C3CCCC3)c3ccc(C(=O)NC4(C(=O)Nc5ccc(/C=C/C(=O)O)cc5)CCCC4)cc3n2C)cs1 [Entry 6097] | – | < 500 | –
45 | C/C(=C\c1ccc(NC(=O)C2(NC(=O)c3ccc4c(C5CCCC5)c(-c5ccc(C)nc5)n(C)c4c3)CCC2)cc1)C(=O)O [Entry 7034] | – | – | EC50 (Huh-7, Table 7): < 500 nM
46 | Cc1ccc(-c2c(C3CCCC3)c3ccc(C(=O)NC4(C(=O)Nc5ccc(/C=C/C(=O)O)cc5)CCN(C)CC4)cc3n2C)nc1 [Entry 6103] | – | < 500 | –
47 | Cn1c(-c2ccccn2)c(C2CCCC2)c2ccc(C(=O)NC3(c4nc5ccc(C=CC(=O)O)cc5[nH]4)CCCC3)cc21 [Entry 1014] | < 500 | – | –
48 | CC(C)(NC(=O)c1ccc2c(C3CCCC3)c(-c3ccccn3)sc2c1)C(=O)Nc1ccc(/C=C/C(=O)O)cc1 [Entry 8002] | 500 to 5000 | – | –
49 | Cn1c(-c2ccccn2)c(C2CCCCC2)c2ccc(C(=O)NC(C)(C)C(=O)Nc3ccc(NC(=O)C(=O)O)cc3)cc21 [Entry 2094] | 500 to 5000 | – | –
50 | CC(C)(NC(=O)c1ccc2c(C3CCCCC3)c(-c3ccsc3)[nH]c2c1)C(=O)Nc1ccc(/C=C/C(=O)O)cc1 [Entry 2059] | < 500 | – | –
51 | O=C(O)Cn1ccc2cc(NC(=O)C3(NC(=O)c4ccc5c(C6CCCCC6)c(-c6ccoc6)[nH]c5c4)CCCC3)ccc21 [Entry 2008] | 500 to 5000 | – | –
52 | C/C(=C\c1ccc(NC(=O)C2(NC(=O)c3ccc4c(C5CCCC5)c(-c5cccc(C)n5)n(C)c4c3)CCC2)cc1)C(=O)O [Entry 7022] | – | – | EC50 (Huh-7, Table 7): < 500 nM
53 | Cn1c(-c2ccccn2)c(C2CCCC2)c2ccc(C(=O)NC3(C(=O)Nc4ccc(/C=C/C(=O)O)cc4)CC3)cc21 [Entry 6036] | – | < 500 | –
54 | CN1CCC(NC(=O)c2ccc3c(C4CCCCC4)c(-c4ccoc4)[nH]c3c2)(C(=O)Nc2ccc(/C=C/C(=O)O)cc2)CC1 [Entry 2052] | < 500 | – | –
55 | CCc1ccnc(-c2c(C3CCCC3)c3ccc(C(=O)NC4(C(=O)Nc5ccc(/C=C/C(=O)O)cc5)CCN(C)CC4)cc3n2C)c1 [Entry 6068] | – | 500 to 5000 | –
56 | CCN1CCC(NC(=O)c2ccc3c(C4CCCCC4)c(-c4ccoc4)[nH]c3c2)(C(=O)Nc2ccc(-c3csc(C(=O)O)n3)cc2)CC1 [Entry 2067] | 500 to 5000 | – | –
57 | Cn1c(C(=O)O)cc2cc(NC(=O)C3(NC(=O)c4ccc5c(C6CCCC6)c(-c6cccc(N)n6)n(C)c5c4)CCC3)ccc21 [Entry 7027] | – | – | EC50 (Huh-7, Table 7): < 500 nM
58 | Cn1c(-c2cccc([N+](=O)[O-])c2)c(C2CCCCC2)c2ccc(C(=O)NC(C)(C)C(=O)Nc3ccc(/C=C/C(=O)O)cc3)cc21 [Entry 2102] | < 500 | – | –
59 | Cn1c(-c2cncc(C(N)=O)c2)c(C2CCCCC2)c2ccc(C(=O)NC(C)(C)C(=O)Nc3ccc(/C=C/C(=O)O)cc3)cc21 [Entry 2103] | < 500 | – | –
60 | Cn1c(-c2ccccn2)c(C2CCCC2)c2ccc(C(=O)NC3(C(=O)Nc4ccc5c(Cl)c(C(=O)O)sc5c4)CCC3)cc21 [Entry 7007] | – | – | EC50 (Huh-7, Table 7): < 500 nM
